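Growth conditions: 96-well plates. Treatment: test compound, 48 hours, 5 concentrations. Analysis: linear interpolation between bracketing concentrations; unreached endpoints set to highest concentration. GI50 marks 50% less growth.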 Calls of active or inactive are those of the source. Cut-off read from the data, not from the text of the source: active = GI50 up to about 1.1 µM and inactive = higher. Square brackets hold non-standard residues; d marks the D form. Peptide text beside a SMILES is read from it. * marks the point of attachment. Ac5c = NC1(C(=O)O)CCCC1; Boc = CC(C)(C)OC(=O)*; tBu = CC(C)(C)*; nBu = CCCC*
Each compound was assayed on NCI-H322M (assay: NCI tumour cell line growth inhibition, 48 h).
`COC(=O)C1=C(C(=O)OC)C23CC4CCC2(C(=O)C1O3)C4(C)C` (stereo unspecified) was tested, and the GI50 was inactive: > 100 µM.
In the case of `O=C(NCc1ccccc1)c1cc2ccccc2o/c1=N\c1cccc(C(F)(F)F)c1`, the GI50 is reported as inactive: > 100 µM.
For `N=C(N)NS(=O)(=O)c1ccc(NC(=O)c2cccc3c(O)c4ccccc4nc23)cc1`, the GI50 was inactive: > 100 µM.
`Oc1cc(O)cc(/C=C/c2ccc(O)c(O)c2)c1` [PICEATANNOL] was tested, and the GI50 was inactive: 23.6 µM.
For `CSCCCNC(=O)c1csc(-c2csc(CCNC(=O)CNC(=O)CNC(=O)OC(C)(C)C)n2)n1`, the GI50 was inactive: > 100 µM.
With `O=C1Nc2c(Cl)cc(Cl)cc2C1=O` the GI50 was inactive: > 100 µM.
For `Cc1ccc2[nH]c(=O)c(-c3cnc(O)nn3)c(O)c2c1`, the GI50 was inactive: > 100 µM.
In the case of `CC(=O)Nc1ccccc1[S+]([O-])c1ccccc1` (stereo unspecified), the GI50 is reported as inactive: > 100 µM.
`C1=CCC[C@@H]2CN3CCCC/C=C\CCCC[C@H]4C[C@H](CN(CCCCCCCC1)C4)[C@H]2CC3` was tested, and the GI50 was inactive: 7.91 µM.
For `CCOC(=O)c1cn2c(n1)sc1cc(Cl)ccc12`, the GI50 was inactive: 50.9 µM.
In the case of `C1=C(c2ccccc2)CN(c2ccccc2)OC1`, the GI50 is reported as inactive: > 100 µM.
`COC(=O)C(NC(=O)OC(C)(C)C)P(=O)(OC)OC` (stereo unspecified) was tested, and the GI50 was inactive: > 100 µM.
`C=CCC1OC(C)(C)Oc2ccc(OCOCCOC)cc21` (stereo unspecified) was tested, and the GI50 was inactive: > 100 µM.
For `O=C(COC(=O)c1cccc2c(=O)c3ccccc3[nH]c12)Nc1ccccc1`, the GI50 was inactive: > 100 µM.
`CC(=O)OC[C@@H]1[C@H]2CC[C@]3(C)[C@@H](OC(C)=O)CC[C@H]3[C@@H]2CC[C@H]1C1(C)SCCS1` was tested, and the GI50 was inactive: > 25 µM.
In the case of `Oc1ccc2c3c1OC1c4[nH]c5c(c4CC4(O)C(C2)N(CC2CC2)CC[C@]314)CC1(O)C2Cc3ccc(O)c4c3[C@@]1(CCN2CC1CC1)C5O4` (stereo partly specified), the GI50 is reported as inactive: 34.5 µM.
With `Cc1c(O)nc(/C=C/C(=O)O)nc1C(=O)O` the GI50 was inactive: > 100 µM.
For `COC1(OC)C2(Cl)CCC1(Cl)C(OC(C)=O)C2` (stereo unspecified), the GI50 was inactive: > 100 µM.
In the case of `CN1CCN(C(=S)N2CCN(C)CC2)CC1`, the GI50 is reported as inactive: > 100 µM.
In the case of `Nc1nc(N)c(C2=CCNCC2)c(=O)[nH]1`, the GI50 is reported as inactive: > 100 µM.
In the case of `Cc1ccc(NC(=O)CCc2cc(C(C)(C)C)nc(S)n2)cc1C`, the GI50 is reported as inactive: > 100 µM.
With `CC(C)(C)C(=O)C(Cc1ccccc1)C(=O)C(C)(C)C` the GI50 was inactive: > 100 µM.
With `Cc1ccc(C(=O)Nc2ccc(CP(=O)(O)O)cc2)cc1NC(=O)Nc1cc(C(=O)Nc2ccc(CP(=O)(O)O)cc2)ccc1C` the GI50 was inactive: > 100 µM.
With `CC(=O)NNC(=S)N/C=C1/C(=O)C=C(C)OC1=O` the GI50 was inactive: > 100 µM.
With `C#CC(C)(C)OCCCCOc1cc(O)c2c(=O)c3ccccc3n(C)c2c1` the GI50 was inactive: > 100 µM.
In the case of `N#Cc1c2c(c(-c3cccs3)n(C3OC(CO)C(O)C(O)C3O)c1=S)CCc1ccccc1-2` (stereo unspecified), the GI50 is reported as inactive: > 100 µM.
In the case of `Oc1ccc(Br)cc1/C=N/C1CCCCC1`, the GI50 is reported as inactive: 42.5 µM.
In the case of `CC(=O)NC1=C(NCC(C)(C)C)C(=O)c2ccccc2C1=O`, the GI50 is reported as inactive: > 100 µM.
`N#C/C(=C\c1cccc(Br)c1)c1nc2ccccc2c(=O)[nH]1` was tested, and the GI50 was inactive: > 100 µM.
With `COc1cc2c(cc1C)NC(=O)/C2=C/c1c(Cl)[nH]c2cc(C)c(OC)cc12` the GI50 was inactive: 7.85 µM.
For `OCCN(CCO)c1ncnc2[nH]cnc12`, the GI50 was inactive: > 100 µM.
`NNC(=O)CC(=O)Nc1ccc(Cl)cc1` was tested, and the GI50 was inactive: > 100 µM.
With `NC1=Nc2ncccc2C(=O)NN1` the GI50 was inactive: 9.33 µM.
With `C[P+](C)(C)c1ccccc1` the GI50 was inactive: > 100 µM.
For `O=S(=O)(Cc1cnc(O)nc1O)Cc1cnc(O)nc1O`, the GI50 was inactive: > 100 µM.
With `O=c1cc(NNc2ccccc2F)[nH]c(=O)[nH]1` the GI50 was inactive: 27.2 µM.
With `N#Cc1ccccc1NC(=O)/C(=N\Nc1ccc([N+](=O)[O-])cc1)C1C(=O)NC(=O)NC1=O` the GI50 was inactive: > 100 µM.
In the case of `S=C1NC(c2ccccc2)=NC(Cc2ccccc2)(c2ccccc2)N1c1ccccc1` (stereo unspecified), the GI50 is reported as inactive: > 100 µM.
With `CC(OC(C)(C)C)C1NC(=O)C(CCCCNC(=O)OC(C)(C)C)NC(=O)C(Cc2c[nH]c3ccccc23)NC(=O)C(Cc2ccccc2)NC(=O)C2(CCCC2)NC(=O)C(Cc2ccccc2)NC1=O` (stereo unspecified) (cyclo([Ac5c]FWK(Boc)T(tBu)F); configuration not given here) the GI50 was inactive: 38.9 µM.
In the case of `O=C1c2cscc2C(=O)C1(O)O`, the GI50 is reported as inactive: > 100 µM.
In the case of `O=C(CN1CCN(c2ccccc2)CC1)c1ccc2[nH]c(=O)oc2c1`, the GI50 is reported as inactive: > 100 µM.
For `O=C(C1OC1c1ccc(O)cc1)C12CC3CC(CC(C3)C1)C2` (stereo unspecified), the GI50 was inactive: > 100 µM.
In the case of `COC(=O)CCN1CCN(CCO)CC1C` (stereo unspecified), the GI50 is reported as inactive: > 10 µM.
`CN(C)CCC(=O)/C=C\c1ccccc1` was tested, and the GI50 was inactive: 31.3 µM.
With `CC(=O)OCc1ccc2c(c1)C(O)NC(=O)O2` (stereo unspecified) the GI50 was inactive: 35.8 µM.
For `COc1ccc(NC(=O)CC(=O)N/N=C/c2ccc(N(CCC#N)S(C)(=O)=O)cc2)cc1`, the GI50 was inactive: > 100 µM.
For `N=C(N)SCc1ccc(Cl)cc1Cl.O=[N+]([O-])c1c(O)c(Cl)cc(Cl)c1Cl`, the GI50 was inactive: 22.1 µM.
`Cc1ccc2c(c1)C(=O)c1nc(C)ccc1C2=O` was tested, and the GI50 was inactive: 16.5 µM.
With `O=C1C(CN2CCCCC2)CCCC1CN1CCCCC1` (stereo unspecified) the GI50 was inactive: > 100 µM.
In the case of `CCCCOc1ccc(CC(NC(=O)OC(C)(C)C)C(=O)NC(C)C(=O)NC(Cc2ccccc2)C(=O)NCC(N)=O)cc1` (stereo unspecified) (Boc-Y(nBu)AFG-NH2; configuration not given here), the GI50 is reported as inactive: 75.3 µM.
In the case of `CO/N=C(\C(=O)Nc1cncs1)c1csc(NC(c2ccccc2)(c2ccccc2)c2ccccc2)n1`, the GI50 is reported as inactive: > 10 µM.
With `COC(=O)C1=CC2OC1(C)C1(CC1)C2=O` (stereo unspecified) the GI50 was inactive: 34.6 µM.
With `O=[N+]([O-])c1ccc(/C=N/C23CC4CC(CC(C4)C2)C3)cc1` the GI50 was inactive: > 100 µM.
In the case of `O=c1c(C(c2cccc(C(c3c(O)oc4ccccc4c3=O)c3c(O)oc4ccccc4c3=O)c2)c2c(O)oc3ccccc3c2=O)c(O)oc2ccccc12`, the GI50 is reported as inactive: 44.7 µM.
`C=CCc1ccccc1C1CC2(C(=O)OC)OC1C(C(=O)OC)=C2C(=O)OC` (stereo unspecified) was tested, and the GI50 was inactive: > 10 µM.
`CCN1C(=O)C/C(=C\C(C)=O)Nc2ccccc21` was tested, and the GI50 was inactive: > 100 µM.
`CCOC(=S)SC/C(=N\OC(C)(C)OC)c1ccccc1` was tested, and the GI50 was inactive: 95.3 µM.
`C(=C\c1ccccc1)/COc1ccccc1C(N1CCOCC1)n1nc2ccccc2n1` (stereo unspecified) was tested, and the GI50 was inactive: 20.2 µM.
In the case of `C1CCNCC1.CN(C)c1ccc(/C=C2/NC(=S)NC2=O)cc1`, the GI50 is reported as inactive: > 100 µM.
In the case of `CC1(C)C2CC(=O)C1(C)C(OCc1ccccc1)C2` (stereo unspecified), the GI50 is reported as inactive: > 100 µM.
With `CN1CCC(C(O)(c2ccccc2)c2ccc(Br)cc2)CC1` (stereo unspecified) the GI50 was inactive: 26.7 µM.
`CN(C)c1ccc(/C=C2\CNC/C(=C\c3ccc(N(C)C)cc3)C2=O)cc1` was tested, and the GI50 was inactive: 19 µM.
In the case of `O=C1C[C@@H]2[C@@H](C=CC23CCCC3)N1O`, the GI50 is reported as inactive: > 100 µM.
With `COc1cc2cc(C(=O)N3CC(CCl)c4c3cc(N(C)C)c3ccccc43)[nH]c2c(OC)c1OC` (stereo unspecified) the GI50 was active: 0.0161 µM.
For `Clc1ccc(CN2CCCN(Cc3ccc(Cl)cc3)C2c2cc3ccccc3c3ccccc23)cc1`, the GI50 was inactive: 66.8 µM.
For `C/C(=C\Cc1cc(O)ccc1O)CCc1c(C)c(O)c(O)c(C=O)c1C` [PANICEIN C], the GI50 was inactive: 35.6 µM.
For `Oc1cccc2ccc(SSc3ccc4cccc(O)c4n3)nc12`, the GI50 was inactive: 56.4 µM.
`CC(=O)O[C@H]1/C(=C/c2ccncc2)C[C@H]2[C@@H]3CC=C4C[C@@H](N5CCCC5)CC[C@]4(C)[C@H]3CC[C@]12C` was tested, and the GI50 was inactive: 12.3 µM.
With `Cc1cc2c(ccc3c(C)cc(=O)oc32)o1` the GI50 was inactive: > 100 µM.
With `CC(=O)Nc1ccc(/C=c2\sc3nnc(CCC(=O)Nc4ccccc4Cl)n3c2=O)cc1` the GI50 was inactive: 57.1 µM.
In the case of `O=[N+]([O-])c1cc(-c2ccc([As](=O)(O)O)cc2)ccc1[As](=O)(O)O`, the GI50 is reported as inactive: > 100 µM.
`NC(=S)Nc1ccc(S(=O)(=O)Nc2ccc(S(N)(=O)=O)cc2)cc1` was tested, and the GI50 was inactive: > 100 µM.
For `COc1cc2c(c(OC)c1OC)-c1ccc(=O)c(O)cc1[C@@H](NC(C)=O)CC2` [COLCHICEINE], the GI50 was inactive: 30.9 µM.
With `C#CC(O)/C=C/C(O)CCCC(O)CC#CC(O)C#CC(O)CCCC(O)/C=C/CCCCCC(=O)CCCCCCCCCCCCCC(O)C(O)C#CC(=O)O` (stereo unspecified) the GI50 was inactive: 27.2 µM.
For `CC(=C/c1ccccc1)/C=C1/NC(=S)N(/C=C2\C(=O)Oc3ccccc3C2=O)C1=O`, the GI50 was inactive: 59.4 µM.
In the case of `COc1ccc(-c2c(C#N)c(N)nc(S)c2C#N)cc1`, the GI50 is reported as inactive: 61 µM.
With `CN(C1=NS(=O)(=O)N=C(N(C)c2ccccc2)O1)c1ccccc1` the GI50 was inactive: 20.4 µM.
In the case of `CCN(CC)CC(=O)NC1c2ccccc2Oc2ccccc21`, the GI50 is reported as inactive: > 100 µM.
`CCN(CC)C(=S)SS(=O)(=O)c1cccc(N)c1` was tested, and the GI50 was inactive: > 100 µM.
In the case of `COc1ccc(NC(=O)CC/C(CC(=O)C(C)(C)C)=N\NC(=O)C(=O)NN)cc1`, the GI50 is reported as inactive: > 100 µM.
With `CCN(CC)CCC(=O)c1ccc(Cl)c(Cl)c1` the GI50 was inactive: > 100 µM.
With `Cn1c2c(c3ccccc31)CC(=S)N1CCCC(CC2O)C1` (stereo unspecified) the GI50 was inactive: > 100 µM.
In the case of `C/C=C(\C)C(O)C(C)C(O)C/C=C(C)/C=C(\C)C/C(C)=C/C/C=C(\C)C(O)C(C)c1ccc(CCC)c(=O)o1` (stereo unspecified), the GI50 is reported as inactive: 15.2 µM.
For `COC(=O)C1(Cc2ccccc2)Cc2ccc3c(c2C1=O)CCC3` (stereo unspecified), the GI50 was inactive: 41.6 µM.
With `Cc1cc(N(CCC#N)CCC#N)ccc1CC1N=C(c2ccccc2)OC1=O` (stereo unspecified) the GI50 was inactive: > 100 µM.
With `CNS(=O)(=O)NNS(=O)(=O)c1cccc([N+](=O)[O-])c1` the GI50 was inactive: > 100 µM.
In the case of `COC(=O)C1=C(OC)[C@H]2C#C/C=C\C#C[C@@H]3Nc4c(cc(O)c5c4C(=O)c4ccccc4C5=O)[C@]24O[C@@]34[C@H]1C`, the GI50 is reported as active: < 0.0126 µM.
For `CC1(C)CCC[C@@]2(C)C1C(=O)[C@@H]1O[C@]1(C)[C@@H]2CO` (stereo partly specified), the GI50 was inactive: 42.3 µM.
For `CN(C)CCNC(=O)c1cccc(CO)c1[N+](=O)[O-]`, the GI50 was inactive: > 100 µM.
`COC1C(C)OC(OC2CC(C)(O)Cc3cc4c(c(O)c32)C(=O)c2c(O)cc3c(c2C4=O)OC2OC3(C)C(O)C(N(C)C)C2O)C(OC)C1(C)OC` (stereo unspecified) was tested, and the GI50 was active: 0.0198 µM.
`COc1c2c(cc3nc4ccccc4nc13)CCC(C(C)(C)O)C2` (stereo unspecified) was tested, and the GI50 was inactive: > 100 µM.
